# The whole screen tested about 410,000 compounds, of which about 1,200 (0.29%) were called active. Inconclusive means that the source gave no clear call. Such entries were picked first, then a sample of the others. The call rests on the fitted dose curve; in most records, active means well fitted activation curve with a large enough effect; inconclusive means small, poorly fitted or top-dose-only effect; inactive means flat fitted curve, though single readings scatter. Potencies beside an inconclusive call are fits to weak or partial responses and may not hold up.
# Assay: qHTS of Nrf2 Activators; further: nearly all actives have a fitted effect of over 65% in size; on activation: % of control where 0% means no effect
# Settings: AREc32 ARE-luciferase reporter (MCF7-derived line), luminescence, 24 h; activation: at 46.1 µM (top of the series)
# Procedure, shortened: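 Steps: seed AREc32_Fluc cells (1000/well, 5% FBS OPTI-MEM); incubate overnight at 37 deg C; add 23 nL compound; incubate 24 hr; add Steady-Glo; hold 30 min RT; read luminescence.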
# Potency means the concentration at half of the fitted maximal effect; tags describe the fitted curve by direction and shape.
SMILES,Potency,activation
CCOC(=O)c1oc2ccc(/C=N/O)c(Cl)c2c1C,"inconclusive: 11.2 µM [activator, partial curve]",
Oc1ccc(Cl)cc1N=Nc1ccccc1,"inconclusive: 15.8 µM [activator, single point]",
O=C(CN1C(=O)c2cccnc2Oc2ccc(Cl)cc21)N1CCOCC1,,inactive: -0.527%
O=C(COc1cccnc1[N+](=O)[O-])c1c[nH]c2ccccc12,"inconclusive: 15.8 µM [activator, single point]",
COC(=O)c1ccc(NCc2c(O)ccc(O)c2Br)cc1Cl,"inconclusive: 28.2 µM [activator, single point]",
CC(c1ccccc1)N1C(=O)/C(=C/c2ccncc2)SC1=S (centres undefined),"inconclusive: 22.4 µM [activator, single point]",
COc1ccc(-c2noc(C3CCCN(C(=O)c4ccccc4C)C3)n2)cc1 (centres undefined),,inactive: 8.74%
CC1=Nc2cc(C(=O)NC3CCCC3)ccc2Sc2ccc(C)cc21,,inactive: -0.352%
CCC(=O)Oc1ccc(C/C(=N\O)c2ccc(O)cc2O)o1,"inconclusive: 31.6 µM [activator, single point]",
CCCn1c(/C=C/c2ccco2)nc2ccccc21,"inconclusive: 2.51 µM [activator, partial curve, poor fit]",
COc1cc(/C=C2/SC(=O)NC2=O)ccc1Oc1ccc([N+](=O)[O-])cc1[N+](=O)[O-],"inconclusive: 8.91 µM [activator, partial curve]",
CC(C)CCNC(=O)Nc1ccc2c(c1)N(C)C(=O)c1ccccc1S2,,inactive: -0.533%
COC(=O)CS(=O)(=O)c1nc2ccccc2nc1N1CCCCC1,"inconclusive: 12.6 µM [activator, single point]",
CCOc1cc(/C=C(\C#N)C(N)=O)ccc1OCc1c(C)no[n+]1[O-],"inconclusive: 22.4 µM [activator, single point]",
COc1ccc(/C(N)=N/OC(=O)c2ccco2)cc1OC,"inconclusive: 17.8 µM [activator, partial curve, poor fit]",
COc1cc(NC(=O)c2cc(-c3cccs3)on2)c(OC)cc1Cl,,inconclusive: 74.6% [activator]
Cc1sc2nc(CN3CCCCC3)nc(Cl)c2c1C,"inconclusive: 17.8 µM [activator, partial curve, poor fit]",
COc1cccc(NC(=O)C2CCCN(c3nnc(-n4c(C)ccc4C)s3)C2)c1 (centres undefined),"inconclusive: 15.8 µM [activator, single point]",
COCc1nnc(NC(=O)c2ccc(S(=O)(=O)N3CCCc4ccccc43)cc2)o1,,inactive: 0.251%
